Source: PubChem BioAssay AID1347417 (National Center for Advancing Translational Sciences (NCATS), 2020)
The campaign covered roughly 120,000 compounds. About 5,300 (4.4%) were called active. This list was built around the results that the source calls inconclusive (neither active nor inactive); the mix of calls is not that of the screen. Calls come from the whole dose curve; as a rule, active = well fitted inhibition curve with a large enough effect; inconclusive = small, poorly fitted or top-dose-only effect; inactive = no such curve, though single readings can be large or run the other way. A potency beside an inconclusive call is a rough fit, not a confirmed value.

test: qHTS Primary assay for Inhibitors of Plasmodium falciparum Dd2 growth in vitro; note: nearly all actives have a fitted effect of over 65% in size;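 for activity, negative = inhibition: plate controls were DMSO vehicle for no effect and reference drug for full effect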; settings: P. falciparum Dd2 growth, SYBR Green, 72 h; activity, negative = inhibition: at 28.9 µM (top of the series) unless noted; series mostly up to 28.9 µM
In short: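 Readout: SYBR Green fluorescence, 485 nm excitation, 535 nm emission, after ~16 h lysis at 37C. Before that, Dd2-infected red cells (2.5% hematocrit) grew 72 h with compound, 29 uM top final concentration.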
Potency is the fitted concentration of half-maximal effect; tags give direction and shape of the fitted curve.

SMILES | Potency | activity, negative = inhibition
COc1cc2c(=O)c(C(=O)c3ccc(C)c(C)c3)cn(Cc3ccc(F)cc3)c2cc1OC | active: 4.47 µM | –
O=C(NCc1ccncc1)C1CN(Cc2ccccc2Br)CC12CCOCC2 (centres undefined) | inconclusive: 17.8 µM [inhibitor, single point] | –
Fc1ccc(-c2cn[nH]c2C2CCCNC2)cc1 (centres undefined) | inconclusive: 17.8 µM [inhibitor, single point] | –
CC(C)c1ccc(NC(=O)C2CCN(S(=O)(=O)c3cccc4nonc34)CC2)cc1 | inactive | –
Cc1ccccc1Nc1c(-c2ccc(Cl)cc2)nc2c(C)cccn12 | inconclusive: 17.8 µM [inhibitor, single point] | –
COc1ccc(NC(=O)Cn2c(=O)n(CCc3ccccc3)c(=O)c3c4c(sc32)CCCC4)cc1 | inconclusive: 11.2 µM [inhibitor, single point] | –
CCOc1cccc(C2c3[nH]c4ccccc4c3CCN2C(=O)CSc2ccccc2)c1 (centres undefined) | inconclusive: 17.8 µM [inhibitor, single point] | –
CC(C)n1nc(OC(C)(C)C(=O)NCCc2ccccn2)c2cc(CN3CCOCC3)ccc21 | inactive | –
Cc1cccc(C(=O)N2CCc3cc(CNC(=O)COc4ccc(Cl)cc4)ccc32)c1 | inconclusive: 0.0079 µM [inhibitor, full curve, poor fit] | –
CCN1c2cc(C(=O)Nc3ccc(F)cc3)ccc2C(=O)N2CCCC21 (centres undefined) | inconclusive: 6.31 µM [inhibitor, partial curve, poor fit] | –
COc1c(C)cc(Br)cc1C(=O)Nc1ccc(-c2nc3ncccc3o2)cc1 | inconclusive: 4.47 µM [inhibitor, partial curve] | –
CC(C)=CCn1c(-c2cc(C)oc2C)cn2cc(C(=O)N3CCCC3C)nc2c1=O (centres undefined) | active: 8.91 µM | –
COc1cc(NC(=O)c2ccc3oc(=O)c(S(=O)(=O)c4ccccc4)cc3c2)cc(OC)c1 | inactive | –
CC(C)(C)NC(=O)N1CCCCCCNC(=O)[C@@H]2C[C@@H](C(=O)N3CCc4ccccc4C3)C[C@@H]21 | active: 4.47 µM | –
COCC(=O)N[C@H]1CO[C@H]2[C@@H]1OC[C@@H]2Nc1nccc(-c2ccc(OC)cc2)n1 | inconclusive: 17.8 µM [inhibitor, single point] | –
CC(C)NC(=O)NC[C@H]1C[C@@H]2CCN1C[C@@H]2c1cc(-c2ccccc2)nn1C | inconclusive: 10 µM [inhibitor, partial curve, poor fit] | –
Cc1cc(C)c(/C=C/c2onc(C)c2S(=O)(=O)N2CCC(C(=O)NCCc3ccccc3)CC2)c(C)c1 | inconclusive: 10 µM [inhibitor, single point] | –
COc1cccc(C(=O)N2CCCC(n3cc(-c4nc(C5CC5)no4)nn3)C2)c1 (centres undefined) | inactive | –
Cc1cc2cc(-c3c(C)noc3C)nc(N3CCN(C)C(=O)C3)c2o1 | inactive | –
Nc1c(C(=O)Nc2ccccc2)sc2nc3c(cc12)CN(Cc1ccccc1)CC3 | inactive | –
O=C(O)CC1(CC(=O)N2CCN3C(=O)c4cc(-c5ccsc5)ccc4NC(=O)[C@H]3C2)CCCC1 | inconclusive: 1.12 µM [inhibitor, partial curve, poor fit] | –
Cc1ccc(C(=O)c2cn(Cc3ccccc3)c3nc(C)ccc3c2=O)cc1 | inconclusive: 11.2 µM [inhibitor, single point] | –

SMILES | Potency | activity, negative = inhibition
CC(=O)N[C@H](CC(C)C)c1nc(-c2ccc(C)nn2)no1 | inconclusive: 12.6 µM [inhibitor, single point] | –
COCCN1CCC2(CCC1=O)CCN(C(=O)Nc1ccc(C(=O)OC)cc1)CC2 | inconclusive: 0.398 µM [inhibitor, partial curve, poor fit] | –
CN1CCCC2(CCN(c3nc4c(cc3C(N)=O)CCC4)C2)C1=O (centres undefined) | inactive | –
Cc1cccc(N(CC(=O)NCCSCc2ccccc2)S(=O)(=O)c2ccccc2)c1C | inactive | –
CCS(=O)(=O)Nc1ccc(C2(C(=O)NC3CCCC3)CCC2)cc1 | inactive | –
Cc1cc(C(F)(F)F)nn1CC(=O)NCCn1c(C)cnc1C1CCC1 | inactive | –
O=C(Nc1ccnn1C1CCN(C(=O)CCCc2ccccc2)CC1)c1cccc(F)c1 | inconclusive: 14.1 µM [inhibitor, partial curve, poor fit] | –
COc1ccc(-n2c(SCC(=O)NCc3ccccc3)nc3c([nH]c4ccccc43)c2=O)cc1 | inconclusive: 8.91 µM [inhibitor, partial curve, poor fit] | –
Cc1ccc(CN2CCCn3nc(C)c(-c4ccccc4-c4ccccc4)c32)o1 | inconclusive: 3.55 µM [inhibitor, single point] | –
C[S+](=O)([O-])c1ccc(-c2nc(C(=O)NCCc3ccc(Cl)cc3)n3ccncc23)cc1 | active: 8.91 µM | –
Cc1ccc(N(Cc2cccs2)C(=O)c2ccco2)cc1 | inconclusive: 2 µM [inhibitor, full curve, poor fit] | –
COCC1CN(C2CCC2)CC12CCN(C(=O)COc1ccccc1)CC2 (centres undefined) | inconclusive: 4.47 µM [inhibitor, partial curve, poor fit] | –
COc1cc(Nc2nc(SCC(=O)c3ccc(Cl)c(Cl)c3)nc3ccccc23)cc(OC)c1 | inactive | –
O=C(Nc1ccc2nc3n(c(=O)c2c1)CCCCC3)c1cccc(C(F)(F)F)c1 | inconclusive: 10 µM [inhibitor, single point] | –
CN1CCC(C(=O)N2CC(F)(F)C[C@H]2c2nc(C3CC3)no2)CC1 | inconclusive: 8.91 µM [inhibitor, single point] | –
CN1c2cc(C(=O)NC3CCCC3)ccc2C(=O)N2CCCCC21 (centres undefined) | inactive | –
COCCNC(=O)CC(c1ccc(Cl)cc1)c1c[nH]c2ccc([N+](=O)[O-])cc12 (centres undefined) | inconclusive: 4.47 µM [inhibitor, partial curve, poor fit] | –
CCCCN(CCCNC(=O)c1cc(Nc2ccccc2OC)nc2ccccc12)c1ccccc1 | inconclusive: 10 µM [inhibitor, single point] | –
CCc1nc2c(NC(=O)NCCc3ccccc3)cccn2n1 | inconclusive: 10 µM [inhibitor, single point] | –
O=C(CN1C(=O)CNC1=O)N1CCN(Cc2ccccc2)CC(O)C1 (centres undefined) | inactive | –
Cc1ccc(S(=O)(=O)c2nc(-c3ccc(F)cc3)oc2N2CCN(c3ccccc3)CC2)cc1 | inconclusive: 17.8 µM [inhibitor, single point] | –
Cc1ccc(CNc2ccc3cc(S(=O)(=O)N4CCCCC4)ccc3n2)cc1 | inconclusive: 17.8 µM [inhibitor, single point] | –

SMILES | Potency | activity, negative = inhibition
CCOC(=O)c1ccc(Nc2nn3c(=O)c4ccccc4nc3s2)cc1 | – | inconclusive: -96.6% [inhibitor] [at 5.79 µM]
CC(C)Cc1cc(CNC(=O)Nc2nnc(C(C)(C)C)s2)on1 | inconclusive: 17.8 µM [inhibitor, single point] | –
CCCCN(C)C(=O)Cn1cnc2sc(C)c(S(=O)(=O)N3CCC(C)CC3)c2c1=O | inconclusive: 14.1 µM [inhibitor, single point] | –
CCNC(=O)NC[C@@H]1C=C(C)[C@H](CC(=O)NCCN(C)C)C[C@H]1C(C)C | inconclusive: 12.6 µM [inhibitor, single point] | –
Cn1c(CO[C@H]2CN(Cc3ccc4c(c3)OCCO4)C[C@H]2F)nc2ccccc21 | inconclusive: 1.41 µM [inhibitor, partial curve, poor fit] | –
O=C(CCCn1c(=O)c2cccn2c2cccnc21)Nc1ccccc1C(F)(F)F | inactive | –
Cc1ccc(C2Cn3nnc(C(=O)N4CCN(C(=O)c5ccc(N(C)C)cc5)CC4)c3CO2)cc1 (centres undefined) | inconclusive: 3.98 µM [inhibitor, partial curve, poor fit] | –
CC(C)CN1CCc2[nH]cnc2C12CCN(C(=O)CN1CCOC1=O)CC2 | inactive | –
CC1(COc2ccc3[nH]ccc3c2)COc2ccc(C(=O)NC3CC3)cc2N1 (centres undefined) | inconclusive: 0.501 µM [inhibitor, partial curve, poor fit] | –
O=C(c1cc(-c2ccc(F)cc2)nc2ccccc12)N1CCCC1c1nc(C2CCOCC2)no1 (centres undefined) | inconclusive: 11.2 µM [inhibitor, single point] | –
COc1ccccc1C(=O)Nc1c(C(=O)c2ccccc2)oc2ccccc12 | inconclusive: 11.2 µM [inhibitor, single point] | –
O=[N+]([O-])c1cccc(-c2noc([C@@H]3C[C@@H](O)CN3Cc3ccccc3O)n2)c1 | inconclusive: 8.91 µM [inhibitor, partial curve, poor fit] | –
CCn1cc(C(=O)N2CC(=O)N(CCc3ccccc3)CC(OCc3cccc(OC)c3)C2)cn1 (centres undefined) | inconclusive: 15.8 µM [inhibitor, single point] | –
OC(COc1ccccc1CNCCc1ccccc1)CN1CCSCC1 (centres undefined) | active: 1.58 µM | –
COCCNC(=O)[C@@H]1C[C@H](Oc2ccccc2)CN1C(=O)c1cnc(C)cn1 | inactive | –
CCOC(=O)Cn1c(=O)n(CC2CCCO2)c2nc(-c3ccccc3Cl)nc(C(N)=O)c21 (centres undefined) | inactive | –
O=C(Nc1cccn2nc(C3CCC3)nc12)c1cccc(C(F)(F)F)c1 | active: 4.47 µM | –
CCC[C@@H]1CN(C(=O)C2(c3ccc(F)cc3)CCOCC2)C[C@H]1N(C)C | inconclusive: 12.6 µM [inhibitor, partial curve, poor fit] | –
CNC(=O)N1CCC(C2CCN(Cc3ccc(OC)cc3)C2)CC1 (centres undefined) | inactive | –
CCn1c2ccccc2c2cc(CN3CCN(Cc4ccc(OC)c(OC)c4)CC3)ccc21 | inconclusive: 17.8 µM [inhibitor, single point] | –
